Source: article PMC4336329 (PLoS ONE, 2015)
Out of some 310,000 compounds screened, about 14,000 (4.5%) showed an effect of 50% or more. The effect is printed as a negative number. This is one part of the list.

These compounds were tested against human ether-à-go-go-related gene (hERG) potassium channel (human, UniProt Q12809) (assay: primary screen, population patch clamp on CHO cells stably expressing hERG).
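Note: peak tail current of the secondary pulse compared with the same well before compound.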

Sequence of human ether-à-go-go-related gene (hERG) potassium channel (Q12809 whole entry, looked up): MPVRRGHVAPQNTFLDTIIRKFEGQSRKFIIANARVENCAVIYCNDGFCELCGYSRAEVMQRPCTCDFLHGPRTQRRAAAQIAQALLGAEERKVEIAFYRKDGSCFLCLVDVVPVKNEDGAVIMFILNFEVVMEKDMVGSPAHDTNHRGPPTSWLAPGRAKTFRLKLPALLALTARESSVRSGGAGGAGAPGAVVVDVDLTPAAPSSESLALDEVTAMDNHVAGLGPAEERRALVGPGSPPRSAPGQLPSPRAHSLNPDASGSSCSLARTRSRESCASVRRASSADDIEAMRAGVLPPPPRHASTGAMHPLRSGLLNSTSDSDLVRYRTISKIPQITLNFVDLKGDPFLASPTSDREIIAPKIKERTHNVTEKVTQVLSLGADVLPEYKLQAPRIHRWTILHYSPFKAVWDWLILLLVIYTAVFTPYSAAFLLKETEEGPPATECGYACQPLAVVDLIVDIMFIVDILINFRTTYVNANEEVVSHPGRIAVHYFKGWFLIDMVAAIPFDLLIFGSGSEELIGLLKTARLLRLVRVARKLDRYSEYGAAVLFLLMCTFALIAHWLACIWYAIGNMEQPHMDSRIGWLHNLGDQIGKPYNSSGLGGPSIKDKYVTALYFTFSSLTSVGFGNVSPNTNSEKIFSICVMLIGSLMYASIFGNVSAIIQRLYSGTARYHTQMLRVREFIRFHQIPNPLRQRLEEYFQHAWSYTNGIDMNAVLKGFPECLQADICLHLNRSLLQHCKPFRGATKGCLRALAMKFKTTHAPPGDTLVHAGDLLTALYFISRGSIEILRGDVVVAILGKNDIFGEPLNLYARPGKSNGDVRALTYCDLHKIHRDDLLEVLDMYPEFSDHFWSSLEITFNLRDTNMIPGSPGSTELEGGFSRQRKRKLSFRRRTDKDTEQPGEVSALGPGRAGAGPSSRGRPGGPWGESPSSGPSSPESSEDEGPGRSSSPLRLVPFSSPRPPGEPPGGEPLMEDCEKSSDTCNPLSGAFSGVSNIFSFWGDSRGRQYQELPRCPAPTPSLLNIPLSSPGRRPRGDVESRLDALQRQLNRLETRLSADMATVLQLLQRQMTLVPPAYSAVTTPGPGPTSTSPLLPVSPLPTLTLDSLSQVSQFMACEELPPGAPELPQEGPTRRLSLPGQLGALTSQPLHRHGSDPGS

| Compound | hERG current change (%, negative = inhibition) at 10uM |
| --- | --- |
| Cc1cc(-c2nc(C)c(C(=O)NNS(=O)(=O)c3ccc(Cl)cc3Cl)s2)no1 | 2.71% |
| Cc1ccc(OCC(=O)O/N=C(\N)c2ccccn2)cc1 | 12% |
| CCN1N=C(c2ccccc2)Cn2c1nc1ccccc12 | -19.6% |
| CCCNC(=O)C1=C(C)C(=O)OC12CCC(C)CC2 (stereo not shown) | 1.61% |
| Cc1ccc(NC(=O)C2CCN(S(=O)(=O)c3cccs3)CC2)cc1 | -22.4% |
| C/C(=N/NC(=O)CNC(=O)c1ccccn1)c1ccccc1 | 11.5% |
| O=C(O)c1ccc(CNC(=O)C23CC4CC(CC(C4)C2)C3)cc1 | 28.4% |
| Cc1ccc(S(=O)(=O)N(C)C)cc1NC(=O)COC(=O)C1CC1 | 16.2% |
| Cc1[nH]c(C)c(S(=O)(=O)Nc2ccccc2Cl)c1C(=O)N1CCCC1 | 15.7% |
| Cc1cnc(C(=O)N2CCCC(C(=O)c3ccc(C(F)(F)F)cc3)C2)cn1 (stereo not shown) | -17.7% |
| CCOC(=O)c1cnc(SCC(=O)Nc2ccc(NC(=O)CC)c(OC)c2)nc1N | -1.97% |
| COc1ccc(-c2nc(CSCC(=O)N3CCC4(CC3)OCCO4)c(C)o2)cc1OC | 13.1% |
| CSc1cccc(NC(=S)N(CCC(C)C)C2CCN(C(C)C)CC2)c1 | -52.5% |
| CCOC(=O)COc1ccccc1/C=C1\NC(=O)NC1=O | -13.8% |
| CC(=O)Nc1nc2n(n1)C(c1ccc(F)cc1)C=C(c1ccccc1)N2 (stereo not shown) | -9.63% |
| O=c1oc2ccccc2cc1-c1csc(Nc2ccc(O)cc2)n1 | 17.8% |
| COc1ccc(C(=O)Nc2cccc(C(C)=O)c2)cc1S(=O)(=O)N1CCOCC1 | -5.82% |
| CCOc1ccc(CO/N=C/c2c(C)[nH]c(=O)[nH]c2=O)cc1 | 2.31% |
| CCOC(=O)C1CCN(c2ncnc3cc(OC)c(OC)cc23)CC1 | -7.62% |
| CCOC(=O)C(c1ccccc1)C(Nc1ccc(F)cc1)c1ccccn1 (stereo not shown) | -6.07% |
| CC(O)[C@H]1CC[C@H]2[C@@H]3CC[C@H]4C[C@@H](O)CC[C@]4(C)[C@H]3C(=O)C[C@]12C (stereo partly shown) | -21.8% |
| O=C(Nc1cc(Cl)ccc1N1CCOCC1)c1cc2ccccc2o1 | 14.2% |

| Compound | hERG current change (%, negative = inhibition) at 10uM |
| --- | --- |
| O=C1CCCC2=C1C(c1cccnc1)Nc1ccccc1N2 (stereo not shown) | 5.41% |
| CC(C)c1ccc(N(CC(=O)NCCSC(C)(C)C)S(C)(=O)=O)cc1 | -13.8% |
| COc1cc2cc(CN(Cc3cccnc3)C(=O)NCc3ccccc3)c(=O)[nH]c2cc1OC | -12.6% |
| COc1ccccc1NC(=O)Cn1nnc(C(=O)NCc2ccc3c(c2)OCO3)c1N | -1.82% |
| OC(c1ccccc1)(c1ccc(Cl)cc1)C1CN2CCC1CC2 (stereo not shown) | -56% |
| C/C=C(/C)C(=O)O[C@@H]1c2cc3c(c(OC)c2-c2c(cc(OC)c(OC)c2OC)[C@@H](OC(C)=O)[C@@H](C)[C@H]1C)OCO3 | 4.78% |
| CSC1=NCCN1C(=O)Cc1ccc(F)cc1 | 10.3% |
| Cc1ccc(Cl)c(NC(=O)CN2CCNC(=O)C2)c1Cl | 3.08% |
| CCOC(=O)c1nn(-c2ccc3c(c2)OCCO3)cc1O | -2.3% |
| CC(C)C[C@H](NC(=O)N1CC(=O)Nc2ccccc21)C(=O)N1CCC(C(=O)O)CC1 | 14.7% |
| COc1ccc(N/C=C2\C(=O)c3c(sc(C)c3C)N(C)S2(=O)=O)cc1 | -14% |
| CCOc1ccc(C(=O)NCC(=O)OC2CCOC2=O)cc1OCC (stereo not shown) | 12.7% |
| Cc1cc(C)n(CC(=O)NNC(=O)CCCOc2ccc(Cl)c(C)c2)n1 | 15.9% |
| COc1ccc(C(=O)N2CCN(c3cccc(Cl)c3)CC2)cc1S(=O)(=O)NC1CC1 | -63.5% |
| Cc1nc(N2CCOCC2)sc1C(=O)NN | 14.8% |
| Cc1ccc(C(=O)NCCc2ccc(S(=O)(=O)N3CCCC3)cc2)cc1 | -0.599% |
| CC1CN(S(=O)(=O)c2ccc(C(=O)Nc3nnc(-c4ccccn4)o3)cc2)CC(C)O1 (stereo not shown) | 7.07% |
| Cc1ccc(CCN2CC(C(=O)NCCc3ccccc3)CC2=O)cc1 (stereo not shown) | -3.16% |
| C=CCn1c(C(CC)CC)nc2ccccc21 | 6.91% |
| O=NNc1nc2ccccc2n1Cc1ccccc1 | -1.83% |
| CCN(CC(=O)Nc1c(F)cccc1F)C(=O)c1cc(C)oc1C | -5.71% |
| Cc1ccc(S(=O)(=O)N(C)C)cc1NC(=O)COC(=O)c1ccc2c(=O)n3c(nc2c1)CCC3 | -9.32% |

| Compound | hERG current change (%, negative = inhibition) at 10uM |
| --- | --- |
| Cc1ccc(N=CNc2ccc(C)cc2C)c(C)c1 | 16.8% |
| Cc1cc(NC(=O)CSc2nnc(C)c(=O)n2N)no1 | 11.8% |
| COc1ccc(CNC2CCCc3ccccc32)c(OC)c1 (stereo not shown) | -36.9% |
| Cc1ccc2nsnc2c1S(=O)(=O)N1CCN(CCc2ccccc2)CC1 | -42.6% |
| CC1CCN(CCc2nc3cc(NS(=O)(=O)c4ccccc4)ccc3n2C)CC1 | -65.5% |
| CCN(CC)C(=O)/C(=C/c1cn(S(=O)(=O)N(C)C)c2ccccc12)NC(=O)c1ccc(OC)cc1 | 0.315% |
| COc1ccc(-c2nn3c(-c4ccco4)nnc3s2)cc1OC | -39.9% |
| O=C(NCc1ccc2c(c1)OCO2)C1CCN(c2ccc(S(=O)(=O)N3CCCC3)cc2)CC1 | -23.8% |
| Cc1ccc(-c2cc(C(=O)NCc3cn(C)nc3C)c3cc(Br)ccc3n2)cc1 | 5.18% |
| O=C(COc1ccc(F)cc1)N1CCCCCCC1 | 12.5% |
| CCOC(=O)NC(=O)COC(=O)c1ccc(Sc2ncn[nH]2)c([N+](=O)[O-])c1 | 26.8% |
| S=c1[nH]nc(COc2ccccc2)n1/N=C/c1ccc(Cl)cc1Cl | 18.2% |
| Cc1cnc(NC(=O)CN2CCN(c3ccccc3F)CC2)s1.Cl | 12.2% |
| CCOC(=O)C1CCN(Cc2cn(C)nc2-c2ccc(Oc3ccccc3)cc2)CC1 | -44.9% |
| Cc1ccc(Cl)cc1N1CCN(S(=O)(=O)c2ccc3c(c2)OCCO3)CC1 | 10.3% |
| NC(=O)N/N=C/c1cc(Br)ccc1OC(=O)c1ccccc1 | 25.4% |
| CCOc1cc(C2Nc3ccccc3NC3=C2C(=O)CC(C)(C)C3)ccc1OC(C)=O (stereo not shown) | 1.7% |
| S=C(NCCc1ccncc1)Nc1cccc2ccccc12 | 2.94% |
| CCSC1=N/C(=C\c2ccccc2)C(=O)N1c1ccc(OC)cc1 | 6.36% |
| COc1ccc(C2NC(=O)C(=O)/C2=C(\O)c2ccc(Cl)cc2)cc1OC (stereo not shown) | 3.6% |
| CC(=O)Nc1ccc(NC(=O)CSc2nc3nc(C)cc(C)c3c(=O)[nH]2)cc1 | 14.7% |
| C=CCn1c(CCNC(=O)c2ccccc2F)nnc1SCc1nc2ccccc2c(=O)[nH]1 | -12.5% |

| Compound | hERG current change (%, negative = inhibition) at 10uM |
| --- | --- |
| CCN1CCN(CC(=O)Nc2sc3c(c2C#N)CCC(C)C3)CC1 (stereo not shown) | -51.7% |
| COC(=O)c1cc(C)nc(Sc2ccccc2N)n1 | 20.9% |
| O=C(COc1ccccc1)NCc1cccs1 | 1.66% |
| O=C(CCSCCc1ccccn1)Nc1ccc(Cl)cn1 | -35.4% |
| COc1ccc2[nH]cc(CCN=C(N)N)c2c1.I | 12% |
| COC(=O)C1CN(C(=O)COc2ccccc2)c2ccccc2O1 (stereo not shown) | 11.1% |
| Cc1cccc2sc(NC(=O)C3CC3)nc12 | 6.96% |
| COC(=O)c1ccccc1NC(=O)C1CCN(S(=O)(=O)c2cc(OC)ccc2OC)CC1 | -17.8% |
| Cc1cccc(-c2nc(CS(=O)CC(=O)NCC3CCCO3)c(C)o2)c1 (stereo not shown) | -5.24% |
| CCN(CC)C(=O)Sc1cccc2cccnc12 | 8.19% |
| CC1(C)CC(CCNS(=O)(=O)c2ccccc2)(c2ccccc2)CCO1 (stereo not shown) | -1.24% |
| CCCC(=O)Nc1ccc(C(=O)COC(=O)C2CC2C)cc1 (stereo not shown) | 5.46% |
| COc1ccc(C(=O)NCc2ccccc2OC)cc1 | -10.3% |
| CCOC(=O)c1ccc(NC(=O)CSc2nnc(CNC(=O)c3ccco3)o2)cc1 | 16.4% |
| Cc1cc(NC(=O)c2ccc3[nH]c(C)c(C)c3c2)ccn1 | -2.11% |
| NS(=O)(=O)c1ccc(CCNC(=O)CCCNC(=O)c2ccc(Cl)cc2)cc1 | 13.5% |
| O=C(CCS(=O)(=O)c1cccs1)Nc1ccc(C(=O)NC2CCCC2)cc1 | 12.3% |
| CC(C)n1c(SCC(=O)Nc2nncs2)nnc1-c1ccco1 | -22.8% |
| COCCOC(=O)C1=C(C)OC(N)=C(C#N)C1c1ccc2c(c1)OCO2 (stereo not shown) | -0.292% |
| COc1cc(NC(=O)c2cccc(C)c2)ccc1NC(=O)c1cc2ccccc2o1 | 6.25% |
| COc1ccc(-c2nnc(SCC(=O)NCc3ccco3)n2C)cc1 | -17% |
| Cc1ccc(C(C(=O)Nc2ccc3c(c2)OCO3)N(C)C(=O)Cc2c[nH]c3ccccc23)cc1 (stereo not shown) | 1.58% |
